Experimental findings from PubChem BioAssay AID360 (National Center for Advancing Translational Sciences (NCATS), 2006) are described below.

Among all 48,000 compounds or so, about 550 (1.1%) were called active. Not shown: some 4% with an inconclusive outcome. Cut-off read from the data, not from the text of the source: active = potency below about 15 µM; inconclusive = mostly about 16 µM to 33 µM; inactive = weaker than that. This is one part of the list.
Potency is the fitted concentration of half-maximal effect.

Chain of UniProt P04062 (P04062 whole entry, looked up): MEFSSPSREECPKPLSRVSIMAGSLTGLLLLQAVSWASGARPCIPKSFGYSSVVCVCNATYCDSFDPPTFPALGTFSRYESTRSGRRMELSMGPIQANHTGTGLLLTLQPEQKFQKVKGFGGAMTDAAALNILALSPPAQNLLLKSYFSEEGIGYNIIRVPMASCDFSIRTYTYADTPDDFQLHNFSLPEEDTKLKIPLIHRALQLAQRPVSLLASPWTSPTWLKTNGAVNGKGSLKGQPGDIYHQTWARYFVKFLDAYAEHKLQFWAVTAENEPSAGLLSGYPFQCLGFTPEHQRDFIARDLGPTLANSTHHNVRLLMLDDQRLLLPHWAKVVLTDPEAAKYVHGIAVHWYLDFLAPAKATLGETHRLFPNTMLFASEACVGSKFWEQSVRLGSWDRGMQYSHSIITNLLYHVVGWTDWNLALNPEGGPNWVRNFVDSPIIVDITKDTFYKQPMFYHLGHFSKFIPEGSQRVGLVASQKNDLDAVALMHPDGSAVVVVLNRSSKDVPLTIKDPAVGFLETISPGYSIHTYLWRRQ

The experiment deals with Lysosomal acid glucosylceramidase (Homo sapiens) (UniProt P04062). The experiment in a line: Glucocerebrosidase.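 Note: the screen sought inhibitors.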 To be noted: purified enzyme, resorufin glucoside fluorescence (screen aimed at inhibitors), 20 min; series mostly up to 77 µM. In outline:
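Normal human glucocerebrosidase (0.2 nM final) was assayed with resorufin β-D-glucopyranoside (30 uM final) in 50mM citric acid/KH2PO4, 10mM sodium taurocholate, 0.01% tween-20, pH 5.9. Compounds were titrated; fluorescence (Ex 548, Em 600) read after 20 min at RT.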
Take `CC(=O)c1c(C)[nH]c(C(=O)N2CCc3ccccc3C2)c1C`: the Potency is inactive: > 76.9 µM.

Take `Cc1cc2cc(CNC(=O)NC3CCCCC3)ccc2[nH]1`: the Potency is inactive: > 76.9 µM.

For the compound `Cn1c(N2CCCC2)nc2c1c(=O)n(Cc1ccc(F)cc1)c(=O)n2C`, the Potency was inactive: > 76.9 µM.

On to `Cn1ncc(Cl)c1C(=O)Nc1cccnc1`, for which the Potency was inactive: > 76.9 µM.

Take `CCOC(=O)c1c(C)n(CCO)c2ccc(O)cc12`: the Potency was inactive: > 76.9 µM.

As to `O=S1(=O)N=C(Nc2ccc(N3CCOCC3)cc2)c2ccccc21`, the Potency is inactive: > 76.9 µM.

With `CCC(C)(C)NC(=O)C(c1ccc(C)o1)N(Cc1cccs1)C(=O)Cn1nnc2ccccc21` (stereo not given), the Potency is inactive: > 76.9 µM.

In the case of `CC1CCCCC1NC(=O)CN(C)S(=O)(=O)c1cccc2nsnc12` (stereo not given), the Potency is inactive: > 76.9 µM.

On to `O=C(NCc1cccnc1)c1c[nH]c2cc3c(cc2c1=O)OCCO3`, for which the Potency was inactive: > 76.9 µM.

Regarding `C=CCNc1nc2c(c(=O)n(C)c(=O)n2C)n1CCCCCC`, the Potency is inactive: > 76.9 µM.

With `CCOC(=O)CSc1nc2ccccc2n1CC(=O)N1CCN(c2ccccc2)CC1`, the Potency was inactive: > 76.9 µM.

For `Cc1nn(CC(O)Cn2cnc3c2c(=O)n(C)c(=O)n3C)c(C)c1Br` (stereo not given), the Potency is inactive: > 76.9 µM.

Take `CCN(CC)S(=O)(=O)c1ccc(Oc2cccc(C(C)=O)c2)nc1`: the Potency is inactive: > 76.9 µM.

On to `COc1ccc(-n2c(=O)[nH]cc(C(=O)N3CCCc4ccccc43)c2=O)cc1`, for which the Potency was inactive: > 76.9 µM.

Turning to `O=C(CN1C(=O)COc2ccccc21)Nc1ccc2c(c1)OCCO2`, the Potency was inactive: > 76.9 µM.

Turning to `c1ccc(CN2CCC3(CC2)Nc2ccccc2CO3)cc1`, the Potency is inactive: > 76.9 µM.

Consider `O=C(NC1c2ccccc2-c2ccccc21)c1ccco1`, for which the Potency is inactive: > 76.9 µM.

For `CC(C)c1c(O)nc(SCCN(C)C)[nH]c1=O`, the Potency is inactive: > 76.9 µM.

For the compound `CC(NC(=O)c1cccnc1)C(=O)N1CCCCC1` (stereo not given), the Potency was inactive: > 76.9 µM.

As for `CCOC(=O)c1oc2ccc(S(=O)(=O)N3CCOCC3)cc2c1C`, the Potency was inactive: > 76.9 µM.

For the compound `COc1ccc(CCNC(=O)CSc2nnc(CNC(=O)c3ccco3)o2)cc1OC`, the Potency is inactive: > 76.9 µM.

Turning to `O=C(CSc1ncn(-c2ccccc2)n1)c1cccs1`, the Potency was inactive: > 76.9 µM.

`Cc1cc(C)nc(Nc2nc3ccccc3[nH]2)n1`: the Potency was inactive: > 76.9 µM.

Take `Cc1cc(=O)oc2cc(Oc3ncccn3)ccc12`: the Potency was inactive: > 76.9 µM.

With `COCCn1c(SCC(=O)Nc2nc(C)c(Cl)cc2Cl)nc2ccccc21`, the Potency was inactive: > 76.9 µM.

In the case of `Cn1c(=O)c2c([nH]c(=O)n2C)n(C)c1=O`, the Potency was inactive: > 76.9 µM.

In the case of `Cn1ccnc1SCC(=O)Nc1cccc2ccccc12`, the Potency was inactive: > 76.9 µM.

For `CC(=O)c1c[nH]c2ccc(C)cc2c1=O`, the Potency was inactive: > 76.9 µM.

Take `COc1ccccc1NC(=O)CSc1nnc(CNC(=O)c2ccco2)o1`: the Potency is inactive: > 76.9 µM.

As to `Cc1ccc(NCc2nnc(SCC(=O)Nc3ncc(C)s3)n2CC2CCCO2)c(C)c1` (stereo not given), the Potency was inactive: > 76.9 µM.

Consider `Cc1nc(NC(C)C)c2oc3ccccc3c2n1`, for which the Potency was inactive: > 76.9 µM.

With `O=C(Nc1ccc(N2CCOCC2)cc1)C1CCCN(S(=O)(=O)c2ccccc2)C1` (stereo not given), the Potency was inactive: > 76.9 µM.

Take `O=c1n(-c2ccccc2)c(=O)n2n1CCCC2`: the Potency was inactive: > 76.9 µM.

With `COc1cccc(NC(=O)N(CCCN2CCOCC2)C(C)c2cc3cccc(OC)c3o2)c1` (stereo not given), the Potency is active: 9.63 µM.

In the case of `CCCC(=O)Nc1nc2ccc3nc(C)sc3c2s1`, the Potency is inactive: > 76.9 µM.

Regarding `Cc1nc2sc3c(c2c(=O)n1/N=C/c1ccco1)CCCC3`, the Potency was inactive: > 76.9 µM.

As for `Cc1ccc(N2CC(C(=O)OCC(=O)C(C)(C)C)CC2=O)cc1C` (stereo not given), the Potency was inactive: > 76.9 µM.

In the case of `O=C(CSc1nc2c(c(=O)n1-c1ccc(F)cc1)SCC2)N1CCCC1`, the Potency is inactive: > 76.9 µM.

As for `c1ccc(CN2CCN(c3ncccn3)CC2)nc1`, the Potency was inactive: > 76.9 µM.

With `CCOC(=O)C(C(=O)N1CCOCC1)C1CCCCC1` (stereo not given), the Potency is inactive: > 76.9 µM.

Consider `Cn1c(=O)n(Cc2ccccc2)c(=O)c2c1nc1n2CCCN1C1CCCCC1`, for which the Potency is inactive: > 76.9 µM.

Take `O=C(CSc1ncc(C(F)(F)F)cc1Cl)N1CCN(S(=O)(=O)c2ccccc2)CC1`: the Potency is inactive: > 76.9 µM.

`C=C(C)c1ccc(C(C)(C)NC(=O)N2CCN(C)CC2)cc1`: the Potency was inactive: > 76.9 µM.

On to `c1cnc(N2CCN(Cc3c[nH]c4ccccc34)CC2)nc1`, for which the Potency was inactive: > 76.9 µM.

Take `CCC(c1nnnn1CCc1ccccc1)N(Cc1ccco1)Cc1cc2c(C)ccc(C)c2[nH]c1=O` (stereo not given): the Potency is inactive: > 76.9 µM.

`c1ccc(NCc2nnc3n2CCCCC3)cc1`: the Potency is inactive: > 76.9 µM.

As to `COC(=O)c1ccc(NC(=O)CCNS(=O)(=O)c2cccc3nonc23)cc1`, the Potency is inactive: > 76.9 µM.

Turning to `Cc1cccc2cc(COC(=O)C3CCCCC3)c(=O)[nH]c12`, the Potency was inactive: > 76.9 µM.

Turning to `O=S(=O)(Nc1ccccc1Cl)c1ccc(F)cc1`, the Potency was inactive: > 76.9 µM.

On to `COc1ccc(-c2nnc(SCc3csc(N)n3)n2C)cc1`, for which the Potency is inactive: > 76.9 µM.

Regarding `CCOc1ccc(N2C(=O)CC(/C=C3/N(C)c4ccccc4C3(C)C)C2=O)cc1` (stereo not given), the Potency is inactive: > 76.9 µM.

For `CCN(C(C)=O)c1nc(CSc2nnc(NC(C)C)s2)cs1`, the Potency is inactive: > 76.9 µM.

As to `O=C(CSc1nnc2ccccn12)NC(=O)NC1CCCCC1`, the Potency is inactive: > 76.9 µM.

`COC(=O)C1=C(C)NC(=O)NC1c1ccccc1` (stereo not given): the Potency was inactive: > 76.9 µM.

With `COc1ccc(-c2cn3c(C)c(C(=O)NCCN4CCOCC4)sc3n2)cc1`, the Potency entry was “inactive”.

For `COc1ccc(OCCC(=O)OCC(=O)NCc2ccco2)cc1`, the Potency was inactive: > 76.9 µM.

On to `Cc1cc(NC(=O)COC(=O)CCCOc2ccc(Cl)cc2C)no1`, for which the Potency is inactive: > 76.9 µM.

For `c1ccc2c(c1)CNC1(CCCCC1)C2`, the Potency is inactive: > 76.9 µM.

As for `CCC(C)NC(=O)c1cc(-c2ccc(OC)cc2)on1` (stereo not given), the Potency was inactive: > 76.9 µM.

As for `CCOC(=O)c1c(C)c(C(=O)Nc2ccc(N(C)C)cc2)c(C)n1CC`, the Potency was inactive: > 76.9 µM.
